Several values for one entry are separate records, joined by “and”; a condition that tells them apart may be missing. Equal values may be shown once.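 Exposure lasted 48 hours, with cells grown in 96-well plates and compounds tested at five concentrations. GI50 = concentration required for 50% inhibition of growth. TGI: concentration producing complete growth inhibition.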 Activity calls are given as the source filed them. No stated cut-off is given here; in the data, active means GI50 below about 0.43 µM; inactive means the rest.
Test system: NCI-H322M lung
Test: NCI-60 cell line screen, 48 h

Compound	TGI	GI50 [µM]	outcome
COc1ccn(CC(=O)c2cc3ccccc3[nH]2)c(=O)n1	> 100 µM		
O=C(N=Nc1c(O)[nH]c2ccccc12)C(O)(c1ccccc1)c1ccccc1	39.3 µM		
N#CSCc1nc2ccc(Cl)cc2c(-c2ccccc2)[n+]1[O-]	> 100 µM		
O=[N+]([O-])/C(C(Cl)=C(Cl)Cl)=C1\NCCS1	> 100 µM		
CCN1C(C)(C)CC(Oc2ccc(C(=O)Nc3ccc(NC(=O)Nc4cc(C(C)(C)C)on4)cc3)nc2)CC1(C)C	8.89 µM	2.68	
CCN(CC)CCOCCn1c2c(c3ccccc31)CCCC2	> 100 µM		
Cc1ncc(C(=O)Nc2ccc(CN3CCN(C)CC3)c(C(F)(F)F)c2)cc1C#Cc1c(N)ncc2ccc(F)cc12	3.08 µM	0.937	
CC(C)(C)OC(=O)N1CC(O)O[C@H](c2ccccc2)[C@@H]1c1ccccc1 (some centres undefined)	> 100 µM		
CC(C)(C)OC(=O)NC(Cc1ccc(OCc2ccccc2)cn1)C(=O)N1CCCC1 (centres undefined)	> 100 µM		
CC(C)NC(=O)OCc1c(COC(=O)NC(C)C)c(-c2ccc[n+](COC(=O)C(C)C)c2)n2c1CCC2	> 100 µM		
Cc1cc2nc(N3C(=O)/C(=C/c4ccc(Oc5ccccc5)cc4)N=C3c3ccccc3)sc2cc1C	> 100 µM		
COc1ccc2c(c1)CCc1c(C(C)=O)c3ccccc3n1C2	> 100 µM		
Cc1cc(Nc2nc(-c3ccc(F)cc3)nc3ccccc23)n[nH]1	29.3 µM	3.99	
Cc1ccc(S(=O)(=O)Nn2c(S)c(C#N)c(-c3ccc(N(C)C)cc3)c(C#N)c2=O)cc1	> 100 µM		
COC(=O)[C@@]12C(=O)CCC(=O)C1C1C(=CC2C)O[C@@H]2OC3(CCCCC3)O[C@H]12 (some centres undefined)	> 100 µM		
O=C(OCc1nc2nc(Cl)nc(N3CCOCC3)c2[nH]1)n1ccnc1	15.7 µM	4.34	
CCOC(=O)c1c(SC(=O)C(C)(C)Oc2ccc(Cl)cc2)n(-c2ccccc2)c(=S)n(-c2ccccc2)c1=O	80.2 µM		
C=C1CCC(OC(C)=O)C2(C)C(OC(C)=O)CC3OC3(C)C2C(OC(C)=O)C2C(C)C(=O)OC2C1Cl (centres undefined)	> 100 µM		
Nc1nc(Cl)nc(NCc2ccccc2)n1	> 100 µM		
O=C(Cc1nc(-c2ccccc2)cc(=O)n1-c1ccccc1Cl)c1ccncc1	> 100 µM		
O=[N+]([O-])c1ccc(OCc2nnc(CCCCCCCCc3nnc(COc4ccc([N+](=O)[O-])cc4)o3)o2)cc1	> 100 µM		
COc1cc(-c2cc(/C=C3\C(=O)Nc4cc(Cl)ccc43)[nH]n2)cc(OC)c1OC	93.8 µM	4.66	
Cc1n[nH]c(=O)n1/N=C/c1ccc([N+](=O)[O-])cc1	> 100 µM		

Compound	TGI	GI50 [µM]	outcome
Nc1cccc(CCN2CCN(CCCc3ccccc3)CC2)c1	> 100 µM		
CC(=O)N1C(Nc2ccccc2)CCN1c1ccccc1 (centres undefined)	> 10 µM		
CC(C)(C)c1ccc(S(=O)(=O)N2C(c3cccc(C4CC[C@@H](C(=O)O)N4S(=O)(=O)c4ccc(C(C)(C)C)cc4)c3)CC[C@H]2C(=O)O)cc1 (some centres undefined)	> 100 µM		
CN1c2ccc(O)c(O)c2-c2cc(O)cc3c2C1CCC3 (centres undefined)	> 100 µM		
COc1ccc(C2C(C#N)=C(N)Oc3c2sc2c(F)cccc32)cc1 (centres undefined)	22.2 µM	5.48	
Clc1ccc(Nc2nnc(CNc3ccccc3)c3ccccc23)cc1	18.3 µM	3.54	
N=C1N(/N=C/c2ccccn2)C(=Nc2ccccc2)C(=S)N1c1ccccc1	27.4 µM		
CCOC(=O)Nc1cc(NC(/C=N/NC(C)=O)C(=O)OCC)c(OC)cc1NC(C)=O (centres undefined)	> 100 µM		
O=[N+]([O-])c1ccccc1N=Nc1c(O)[nH]c2ccc(S(=O)(=O)O)cc12	> 100 µM		
CCOC(=O)Cn1c(=O)[nH]c(=O)c2c1ncn2Cc1ccccc1	> 100 µM		
COc1cccc(/C=C(\NC(C)=O)c2nc3ccc(Cl)cc3[nH]2)c1	> 100 µM		
Cc1ccc(NC(=O)c2cc(S(=O)(=O)Nc3n[nH]c(=O)n3-c3ccccc3)c(S)cc2Cl)cc1	> 100 µM		
OC/C=C/[C@H](OCc1ccccc1)[C@H](/C=C/CO)OCc1ccccc1	> 100 µM		
c1cc2ccc3cc4ncccc4c4ccc(c1)c2c34	> 100 µM		
COc1c2c(cc3occ(-c4ccc(CC=C(C)C)cc4)c(=O)c13)OC(C)(C)C=C2	> 100 µM		
C=CCCCCCCCC(O)C1C[C@H](O)C(CCCCC)O1 (some centres undefined)	31.8 µM		
COc1cc(/C=C2\C[C@H]3[C@@H]4CC=C5C[C@@H](OC(C)=O)CC[C@]5(C)[C@H]4CC[C@]3(C)\C2=N\O)cc(OC)c1OC	> 100 µM		
N#Cc1c(-c2ccc(Cl)cc2)cc(-c2ccc(Nc3ccnc4cc(Cl)ccc34)cc2)nc1N	> 100 µM		
N#C/C(=C/NC(=S)NCc1ccccc1)C(N)=O	> 100 µM		
CC1(C(=O)Nc2ccc3cc4ccccc4cc3c2)CC2(C)CC(C)(C1)C(O)NC2=O (centres undefined)	> 100 µM		
CCOP(=O)(OCC)C1CC(C)OC1=O (centres undefined)	> 100 µM		
CC(C)(O)/C=C/C(=O)[C@](C)(O)[C@H]1[C@H](O)C[C@@]2(C)[C@@H]3CC=C4[C@@H](C=C(O)C(=O)C4(C)C)[C@]3(C)C(=O)C[C@]12C	> 10 µM and 7.9 µM		
CCN(CC)c1ccc(/C=N/NC(=O)c2ccc(S(C)(=O)=O)cc2)c(O)c1	> 100 µM	0.256	

Compound	TGI	GI50 [µM]	outcome
Clc1nc(Cl)c2ncn(C/C=C\COc3cccc(OC/C=C\Cn4cnc5c(Cl)nc(Cl)nc54)c3)c2n1	> 100 µM	> 100	
COc1cccc2c1C(=O)c1c(O)c3c(c(O)c1C2=O)C[C@@](O)(C(C)=O)C[C@@H]3O[C@H]1C[C@H](N)[C@H](O)[C@H](C)O1	2.52 µM	0.288	
C=CCNCCN1C(=O)c2ccc3c4c(ccc(c24)C1=O)C(=O)N(CCNCC=C)C3=O	2.23 µM	0.698	
NCCNS(=O)(=O)c1ccc(N)cc1	> 100 µM		
COc1ccc2[nH]c3c(C)c4ccnc(NCCCN(C)CCCNc5ccc([N+](=O)[O-])c6[nH]c7ccccc7c(=O)c56)c4c(C)c3c2c1	4.46 µM		
CCc1nnc(CC)n1N1C(=O)CCC1=O	> 100 µM		
O=C(O)COc1ccc(C(=O)/C(SS/C(C(=O)c2ccc(OCC(=O)O)c(Cl)c2Cl)=C2\C=C(c3ccc(F)cc3)SS2)=C2/C=C(c3ccc(F)cc3)SS2)c(Cl)c1Cl	> 100 µM		
Cc1ccc(NC(=O)/C=C/c2ccccc2)c(C)c1	> 100 µM		
COc1ccc(NC(=O)Nc2ccccc2CNc2nc(Nc3ccc(OCCN4CCCC4)cc3)ncc2Cl)cc1	2.96 µM	1.1	
CC1=CC(O)(c2ccccc2)C(N2CCOCC2)N1O (centres undefined)	> 100 µM		
C/C(=C1\SC(=NCc2cccs2)NC1=O)c1ccc2ncccc2c1	> 25 µM	> 25	
COc1ccc(C(CC(C)=O)c2c(O)c3ccccc3oc2=O)cc1OC (centres undefined)	> 100 µM		
[C-]#[O+].[C-]#[O+].[C-]#[O+].[C-]#[O+].[O-]C(c1ccccc1[PH+]1OC(C(F)(F)F)(C(F)(F)F)c2ccccc21)(C(F)(F)F)C(F)(F)F.[Re] (centres undefined)	23.5 µM	10.1	
O=c1cc(-c2ccc(O)c(O)c2-c2c(O)cc(O)c3c(=O)cc(-c4ccc(O)c(O)c4)oc23)oc2cc(O)cc(O)c12			inactive
Cc1cc(C)nc(Sc2c([N+](=O)[O-])ncn2C)n1	> 100 µM		
COc1ccc2cc(C(=O)CCC(=O)O)ccc2c1	> 100 µM		
Cc1c2c(nn1-c1ccc(S/N=C3\SCC(=O)CN3Cc3ccccc3)cc1)-c1ccccc1CC2	> 100 µM	> 100	
CC1CC(NN)=Nc2ccccc2N1 (centres undefined)	> 100 µM		
O=C1OC(c2ccccc2)=N/C1=C\c1ccc(Cl)cc1	> 100 µM		
CN(C)CCn1cnc2sc3ccccc3c21	> 100 µM		
O=C1Nc2ccccc2C12CCCC2	> 100 µM		
CN=c1ss/c(=N\C(=S)N(C)C)n1-c1ccccc1	> 100 µM		
CC(C)(C)C1=Nc2c(Br)cc(C(C)(C)C)cc2C(C(F)(F)F)(C(F)(F)F)O1	> 100 µM		

Compound	TGI	GI50 [µM]	outcome
Clc1ccc2c(NCCNC3CCCCC3)ccnc2c1	24.3 µM		
C=CCN1CN(C2CCCCC2)CSC1=S	40.3 µM		
CC(=O)OCc1cnc2c3c(nc4ccccc4c13)C(=O)c1cccnc1-2	0.749 µM	0.0323	
O=S(=O)(O)c1cc(N=Nc2cccc3ccccc23)c(O)c2ncccc12	> 100 µM		
N#Cc1c(N2CCCC2)ncn(-c2ccccc2)c1=S	> 100 µM		
O=C1NC(=NCc2ccccc2Br)S/C1=C\c1ccc2ncccc2c1	> 20.9 µM	5.04	
CSC(SC)=C(C#N)C(=O)Nc1ccc(C)cc1	> 100 µM		
COc1ccc(C2=C(Cl)C(=O)N(c3ccc(OC)cc3OC)C(=O)C2(Cl)Cl)cc1	56.7 µM		
COC(=O)/C(=N/NC(N)=O)C(C(=O)C(=O)Nc1ccc(C)cc1)c1nc2ccc(C(=O)c3ccccc3)cc2[nH]c1=O (centres undefined)	> 100 µM		
CN(C(=O)Nc1ccc(Cl)c(Cl)c1)C1CCCC[C@@H]1N1CCCC1 (some centres undefined)	> 100 µM		
CCN(CC)CCCNc1[nH]ncc2cc3c(nc4ccc(OC)cc43)c(C)c12	12.7 µM		
Nc1ccc(Cc2ccc(N=Cc3ccc(OCc4cccc(COc5ccc(C=Nc6ccc(Cc7ccc(N)cc7)cc6)cc5)n4)cc3)cc2)cc1	> 100 µM		
COc1ccc(C2(O)C(S(=O)(=O)c3ccc(C)cc3)=Cc3ccc(OC)cc32)cc1 (centres undefined)	> 100 µM		
Cc1cc(S(=O)(=O)NC2=NCC(C)NN2)c(S)cc1Cl (centres undefined)	> 100 µM		
O=C(Nc1ccc2[nH]c3c(-c4ccccc4)nccc3c2c1)c1ccccc1[N+](=O)[O-]	> 100 µM		
CCSc1cc(C(=O)OC)c2n(c1=O)CCCC2	> 100 µM		
COc1cc(C)cc2c1[nH]c1ccccc12	> 25 µM	13	
CC(C)(C)C1=NC(=P(c2ccccc2)(c2ccccc2)c2ccccc2)C(=O)O1	> 100 µM		
O=C(/C=C/c1cccs1)c1ccc(Cl)cc1Cl	42.3 µM	19.8	
COc1ccc2c(c1)OCCCN(C)OC2c1ccccc1 (centres undefined)	> 100 µM		
CC(C)C1(Cl)CCC2C3(C)CCCC(C)(C(=O)O)C3CC(Cl)C2(Cl)C1Cl (centres undefined)	> 100 µM		

Source: PubChem BioAssay (NCI)
